{"source": "patent US20090234023A1", "about": "“SUBSTITUTED HYDROXYACETOPHENONE DERIVATIVES” (Riemser Arzneimittel AG, priority 2004, published 2009)", "key": {"[1]": {"test_system": "MIAPaCa2 pancreas; C205 colon and T47D breast", "experiment": "Additional test of L2 on three tumour lines", "experimental": "Moreover, this substance was tested on the following cell lines:\nMIAPaCa2 pancreas; C205 colon and T47D breast and for comparison it was tested on the non-pathogenic line: WI38 (fibroblasts)."}, "[2]": {"test_system": "mamma NCI-ADR (expresses MDR phenotype)", "settings": "for ED50 (effective dosage which killed 50% of the human cancer cells): NCIADR, 48 hours incubation", "experimental": "All determinations were conducted as threefold determination."}}, "note": "Where two headings read alike, the source gives them in different places."}
{"smiles": "CC(=O)c1cc(CC=C(C)C)ccc1O", "note": "[Compound L2]", "values": [{"measurement": "activity against the 3 tumour lines", "setting": "[1]", "value": "selectively active"}, {"measurement": "activity against the 3 tumour lines", "setting": "[1]; listed as 1-[2-Hydroxy-5-(3-methylbut-2-enyl)ethanone", "value": "selective properties"}, {"measurement": "ED50 (effective dosage which killed 50% of the human cancer cells)", "setting": "[2]", "value": 6.0, "unit": "µg/mL"}]}
{"smiles": "CC(=O)c1ccccc1OCC=C(C)C", "note": "[Compound L1, 1-[2-(3-methylbut-2-enyloxy)phenyl]ethanone]", "values": [{"measurement": "cytocidal activity", "setting": "[2]; NCI-ADR", "value": "cytocidal activity"}, {"measurement": "ED50 (effective dosage which killed 50% of the human cancer cells)", "setting": "[2]", "value": 8.0, "unit": "µg/mL"}]}
